Data reported in PubChem BioAssay AID488969 (Vanderbilt High Throughput Screening Facility, 2010).
Whole data set: some 110,000 compounds, median “z-score” near -0.1, cut for the highest 2% near 2. The list shows a part of the results. Active and inactive are the calls of the source.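 Rule for the calls: active = z-score in the third read window above 3 or below -3; inactive = the rest.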

Biological target: Metabotropic glutamate receptor 8 (Rattus norvegicus) (UniProt P70579)
Assay: mGluR8 Gi/Go-coupled signaling modulation – cell-based, rat, thallium flux, HTS, primary screen (AID 488969)
Conditions: HEK293 rat mGluR8, GIRK (G protein-gated inwardly rectifying potassium channel) thallium flux, FluoZin2; at 10 µM; stronger effect = higher value; submaximal glutamate (EC20) added with thallium

Sequence of UniProt P70579 (P70579 whole entry, looked up): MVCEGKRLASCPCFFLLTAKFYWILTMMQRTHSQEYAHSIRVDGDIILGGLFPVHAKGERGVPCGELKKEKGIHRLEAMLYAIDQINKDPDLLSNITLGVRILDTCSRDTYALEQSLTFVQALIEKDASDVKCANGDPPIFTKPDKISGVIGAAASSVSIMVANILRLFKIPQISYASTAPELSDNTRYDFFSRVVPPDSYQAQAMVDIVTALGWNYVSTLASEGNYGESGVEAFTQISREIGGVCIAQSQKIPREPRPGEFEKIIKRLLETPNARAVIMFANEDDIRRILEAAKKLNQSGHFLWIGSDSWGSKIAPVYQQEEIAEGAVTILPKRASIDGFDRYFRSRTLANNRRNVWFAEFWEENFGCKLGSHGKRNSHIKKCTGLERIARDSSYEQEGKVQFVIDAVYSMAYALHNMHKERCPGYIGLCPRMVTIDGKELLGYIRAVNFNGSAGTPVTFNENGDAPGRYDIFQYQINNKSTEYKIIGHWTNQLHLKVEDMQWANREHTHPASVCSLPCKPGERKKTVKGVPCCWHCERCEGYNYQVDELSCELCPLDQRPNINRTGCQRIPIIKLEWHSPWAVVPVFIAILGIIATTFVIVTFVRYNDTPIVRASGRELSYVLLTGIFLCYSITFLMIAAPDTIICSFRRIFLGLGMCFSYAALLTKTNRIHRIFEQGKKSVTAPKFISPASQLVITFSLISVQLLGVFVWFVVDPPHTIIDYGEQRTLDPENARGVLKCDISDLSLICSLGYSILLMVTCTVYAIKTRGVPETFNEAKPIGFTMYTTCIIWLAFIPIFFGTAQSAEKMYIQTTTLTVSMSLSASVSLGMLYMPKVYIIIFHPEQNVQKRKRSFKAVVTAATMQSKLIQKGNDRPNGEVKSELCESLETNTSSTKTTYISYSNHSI

Compound | z-score
Cc1ccc(-c2n[nH]c(=O)c3ccccc23)cc1S(=O)(=O)N(C)CCO | -0.15
O=[N+]([O-])c1cnccc1Nc1cccc(F)c1 | 0.28
O=C1CC(c2ccccc2)CC(O)=C1C=NCc1ccc(Cl)cc1 (stereo not given) | -0.0336
Nc1ccc(Nc2ccncc2[N+](=O)[O-])cc1 | 0.0617
COc1cc(/C=N/NC(=O)COc2ccc(Cl)cc2)ccc1OS(=O)(=O)c1ccc(C)cc1 | -0.0849
COc1cc(/C=N/O)cc(Br)c1OCc1cccc(Cl)c1 | -0.0243
Cc1ccc2[nH]c(=O)c(CNS(=O)(=O)c3ccccc3)c(-c3ccccc3)c2c1 | -0.494
c1ccc(SCc2nc(-c3ccncc3)no2)cc1 | -0.13
O=C(O)c1cnc(-c2ccccc2)nc1Sc1ccccc1 | -0.111
CCOc1cc(/C=C2\SC(=S)N(Nc3ccccc3)C2=O)ccc1O | -0.154
Cc1ccc(S(=O)(=O)Nc2ccc(Cl)cc2)cc1NC(=O)c1cc2c(s1)CCCC2 | -0.413
CCN1C(=O)c2ccccc2S(=O)c2ccc(C(=O)NC3CC3)cc21 (stereo not given) | -0.434
COc1ccc2cc(C(=O)NCC(=O)O)sc(=O)c2c1OC | active: 3.42
CCC(=O)N/N=C/c1ccc(OS(=O)(=O)c2ccccc2)cc1 | -0.163
N#CC1=C(N)SC(N)=C(C#N)C1c1c(Cl)cccc1Cl | -1.74
Cc1c(NC(=O)C(C)OC(=O)CNC(=O)c2ccc(C(C)(C)C)cc2)c(=O)n(-c2ccccc2)n1C (stereo not given) | -0.119
COC(=O)c1ccc2c(c1)SC1=C(CCCC1=O)N2 | 0.734
Cc1cc(C(=O)NCCCN2CC(C)CC(C)C2)n(-c2ccccc2)n1 (stereo not given) | -0.011
Cc1ccc(OCC(=O)NCc2ccco2)cc1C | -0.113
Cc1ccc2c(c1)nnn2C1CCN(CC(=O)N2CCN(c3ccc(F)cc3)CC2)CC1 | -0.916
Cc1ccc(NC(=O)CC2Oc3ccc(C)cc3NC2=O)cc1 (stereo not given) | 0.104
O=C(Nc1ccccc1)NC1CCN(CCCN2C(=O)c3ccccc3C2=O)CC1 | 0.296

Compound | z-score
Cc1ccc2nc(N3CCN(S(=O)(=O)c4ccc(C)c(Cl)c4)CC3)c(C#N)cc2c1 | 0.168
Nn1c(SCC(=O)N2CCc3ccccc3C2)nnc1-c1cccs1 | -0.00306
CS(=O)(=O)N1CCN(c2ccccc2NC(=O)c2cccs2)CC1 | -0.148
O=C(CSc1n[nH]c(-c2ccccc2)n1)c1ccccc1 | -0.568
O=C(Nc1ccc(F)cc1)NC1(C(=O)NCc2cccs2)CCCCC1 | 0.4
Cn1nc(-c2ccccc2)c2nc3ccccc3nc21 | -0.137
CCC(=O)Nc1cc2c(cc1C(=O)c1ccccc1)OCCO2 | -0.157
O=[N+]([O-])c1ccc2[nH]nc(-c3ccccc3)c2c1 | -0.301
Cc1ccc(S(=O)(=O)N/N=C/c2ccc(OCC(=O)Nc3ccccc3Cl)cc2)cc1 | -0.134
Cc1cc(C)c(NC(=O)C2CC(=O)N(c3ccc4c(c3)OCCO4)C2)c(C)c1 (stereo not given) | -0.45
O=C(Nc1ccc(Cl)cc1)c1csc(-c2ccccc2)n1 | -0.22
Cc1ccc(C(=O)COC(=O)CNC(=O)COc2ccccc2C)cc1C | -0.594
NC(=O)c1ccsc1NC(=O)c1cccs1 | -0.0367
CCN(C(=O)CSc1nnc(Cc2cccc3ccccc23)n1N)C1CCS(=O)(=O)C1 (stereo not given) | -0.0561
COc1ccc(-c2cc(CCCC(=O)N3CCN(c4ccc(OC)cc4)CC3)no2)cc1 | -0.161
O=C(NNS(=O)(=O)c1ccccc1)c1ccncc1 | -0.151
Cc1nn(S(=O)(=O)N2CCCCC2)c(C)c1Br | -0.00999
Cn1cnc2c1c(=O)n(Cc1ccccc1)c(=O)n2C | -0.174
CC1(C)CC(=O)C=C(Nc2cc(-c3ccccc3)[nH]n2)C1 | -0.115
CCc1nnc(NC(=O)NCN2C(=O)C3C4C=CC(C4)C3C2=O)s1 (stereo not given) | -0.373
CCNC(=O)O/N=C(\C)c1sc(-c2ccc(Cl)cc2)nc1C | -1.15
CCC(=O)NC(=S)Nc1ccc(NC(=O)COc2ccccc2)cc1 | 0.0565

Compound | z-score
COc1ccc(-c2nc(CS(=O)CC(=O)NCc3cccnc3)c(C)o2)cc1 (stereo not given) | 0.0703
O=C(NCC1CCCO1)c1ccc(NC(=O)C2CC=CCC2C(=O)O)cc1 (stereo not given) | -0.0849
CSc1nc2ccc(NC(=O)CSc3nnc(N)s3)cc2s1 | -0.286
CC(C)=CCC/C(C)=C/C=N/NC(=O)c1ccccc1[N+](=O)[O-] | -0.0423
O=C(CSc1nnc(-c2ccc3c(c2)OCO3)n1-c1ccccc1)c1ccc(Cl)cc1 | -0.726
COc1cccc(NC(=O)CN(c2cccc(F)c2)S(C)(=O)=O)c1 | -0.058
COc1ccc(S(=O)(=O)n2nc(C)cc2C)c(C)c1C | -0.246
Cc1onc(-c2ccccc2Cl)c1C(=O)Nc1c(C)n(C)n(-c2ccccc2)c1=O | 0.0475
CCOC(=O)N1CCC(NC(=O)c2cc(C(=O)NC3CCCC3)ccc2CO)CC1 | -0.638
N#C/C(C(=O)Oc1ccccc1)=C1\C=Cc2ccccc2N1 | 0.0612
Cc1cccc(S(=O)(=O)NCCC(=O)OC(C)C(=O)NC(=O)NC2CCCCC2)c1 (stereo not given) | -0.152
N#Cc1ccccc1CN1C(=O)S/C(=C/c2cccn2-c2ccc(C(=O)O)cc2)C1=O | -0.6
COc1ccc(C2C(=O)N(C3CCCCC3)CC(=O)N2CCc2ccccc2)cc1OC (stereo not given) | -0.0366
Cc1nnc(SCC(=O)Nc2nccs2)[nH]c1=O | 0.793
CCOC(=O)CN1CC23C=CC(O2)C(C(=O)NC2CCCCCC2)C3C1=O (stereo not given) | -0.149
C/C(=C\C(=O)O)C(=O)Nc1nccs1 | -0.121
CC(C)(CSc1ccccn1)NS(=O)(=O)c1ccc(Cl)cc1 | -0.164
O=C(CN1CC(c2ccccc2)CC1=O)OCc1ccccc1F (stereo not given) | -0.652
Cn1c(SCc2nc3ccccc3c(=O)[nH]2)nnc1-c1ccco1 | 0.192
CCCCOc1ccccc1NC(=O)C=C(C)C | -0.0373
COCCn1nnnc1C(c1ccccc1OC)N1CCN(c2ccccc2F)CC1 (stereo not given) | -0.175
CCn1cc(C(=O)N2CCCCC2)c(=O)c2cc(S(=O)(=O)N3CCC(C)CC3)ccc21 | -0.0547

Compound | z-score
COc1ccc(C(=O)NCc2nnc(SCC(=O)NCc3ccc(F)cc3)o2)cc1 | -0.134
O=C(C1CCCN(Cc2ccc3c(c2)OCO3)C1)N1CCCC1 (stereo not given) | -0.401
N#C/C(=C\c1ccc(Sc2ccc(Cl)cc2)o1)c1nc2ccccc2[nH]1 | -0.486
O=C(OCC#CCSc1nc2ccccc2o1)c1cc2ccccc2o1 | 0.656
Cc1ccc(CN(Cc2cc3cc4c(cc3[nH]c2=O)OCCO4)Cc2nnnn2Cc2ccco2)cc1 | -0.0774
COC(=O)c1cccc(NS(C)(=O)=O)c1C | -0.254
O=C(NCC(c1cccnc1)N1CCOCC1)c1cccs1 (stereo not given) | 0.336
O=C(CSCc1ccc(Br)cc1)Nc1ccc(S(=O)(=O)N2CCCCCC2)cc1 | 0.923
O=C(COC(=O)c1ccc2c(c1Cl)C(=O)c1ccccc1C2=O)NC1CCCCC1 | -0.327
C=CCn1c(CCNC(=O)c2cccs2)nnc1SCC(=O)c1cccc([N+](=O)[O-])c1 | -0.306
Cc1ccnc(NC(=O)c2ccc([N+](=O)[O-])o2)c1 | -0.0852
Cc1cc(N/N=C/c2cccc(Br)c2)nc2ccccc12 | -0.353
CC1=C(C(=O)Nc2ccccc2)C(c2ccc(C)cc2)N=C(Nc2nc3ccccc3o2)N1 (stereo not given) | -0.11
C(=C\CSc1ncn[nH]1)/CSc1ncn[nH]1 | -0.729
Cc1cccc(NC(=O)CN2C(=O)N/C(=C/c3ccc(C)o3)C2=O)c1 | 0.0879
Nc1cccc2c1C(=O)N(C(=O)c1cccc(S(=O)(=O)N3CCCC3)c1)C2=O | -0.274
COc1ccc2nc(N3C(=O)CC(Cc4cc(C)cc(C)c4)C3=O)sc2c1 (stereo not given) | -0.0224
CNC(=S)N1N=C(c2ccc(Br)cc2)CC1c1ccc(Br)cc1 (stereo not given) | -0.126
CCN(CC)S(=O)(=O)c1cccc(NC(=O)CN2C(=O)c3ccc([N+](=O)[O-])cc3C2=O)c1 | -0.564
CC(=O)Nc1cc2c(cc1C(=O)c1ccc(C)cc1)OCCO2 | 0.116
Cc1ccc(Cn2nc(C)c(NC(=O)C3CC3)c2C)cc1 | -0.085
CCOC(=O)c1ccc(NC(=O)c2cccc(S(=O)(=O)N3CCOCC3)c2)cc1 | 0.0703

Compound | z-score
Cc1cccc2cc(CN(Cc3ccco3)C(=O)c3ccncc3)c(=O)[nH]c12 | -0.0862
O=C(Nc1nccs1)c1csc2c1CCCC2 | -0.212
CCOC(=O)C1=C(c2ccccc2)N=c2s/c(=C\c3ccc(O)cc3)c(=O)n2C1c1cccs1 (stereo not given) | -0.218
COc1cc(-c2cc(C(F)(F)F)n3ncc(C(=O)O)c3n2)cc(OC)c1OC | -0.377
O=C(/C=C/c1ccco1)Nc1cccc(NC(=O)/C=C/c2ccco2)n1 | -0.427
Cc1cc(=O)[nH]c2cc(O)ccc12 | 0.343
O=C(Cc1cn2ccsc2n1)Nc1cccc2cnccc12 | -1.03
CCCCCCn1c(=O)c(-c2ccccc2)c(O)c2ccccc21 | -0.524
O=C(O)CSc1nc(C(F)(F)F)cc(=O)n1-c1ccccc1 | 0.25
Cn1cc(Cl)c(C(=O)Nc2nc3ccccc3s2)n1 | 0.73
O=C(CC1Sc2ccccc2NC1=O)Nc1cccnc1 (stereo not given) | 0.163
O=C1C=C(Nc2ccc(O)cc2)CC(c2ccco2)C1 (stereo not given) | 0.053
COc1ccc2[nH]c(=O)c(CN(C(=O)c3cccnc3)c3ccccc3OC)cc2c1 | -0.0305
O=C(Nc1cccc(Cl)c1Cl)C1CCN(c2ncccn2)CC1 | -0.442
FC(F)(F)c1cc(-c2ccccc2)nc(NCC2CCCO2)n1 (stereo not given) | 0.426
O=C(CN1CCN(S(=O)(=O)c2ccccc2)CC1)Nc1ccc(N2CCOCC2)cc1 | -0.254
Cc1cccc(C)c1OCC(=O)NNC(=O)Nc1ccc(Cl)cc1 | 0.0655
C/C(=N\NC(N)=S)c1ccc(Cl)s1 | 2.19
COC(=O)c1cc(OC)c(OC)cc1NC(=O)c1ccc(OC)c(OC)c1 | -0.371
O=C(NCCN1C(=O)S/C(=C\c2ccccc2)C1=O)c1cc(S(=O)(=O)N2CCOCC2)c(Cl)cc1Cl | -0.15
CCOC(=O)c1sc(=S)n(C)c1C | -0.209
CCC(=O)NC(=S)Nc1ccc(-c2nc3ccc(C)cc3s2)cc1 | 1.19
